# Assay results reported in publication PMC12136788.
# The list shows a part of the results.
# T1: UNK ZnF1-3 (human, UniProt Q9C0B0 31-174)
# T1 sequence: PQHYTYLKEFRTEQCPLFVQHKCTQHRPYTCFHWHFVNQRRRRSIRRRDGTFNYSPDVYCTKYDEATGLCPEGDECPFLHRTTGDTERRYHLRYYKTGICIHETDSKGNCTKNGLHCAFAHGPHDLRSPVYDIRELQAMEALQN
# B1: chr7:149068622:149068623:-_ENSMUSG00000025139_ENSMUST00000001950|mus_hu|mus_mus_mus_hu_False|28_28 (ssRNA)
# RNA: GGGAGUUCUACAGUCCGACGAUCGUGAGGCCUCUGAGUGUGGCUUGUGGUCUGUCCUGGGUUAGAGUUGUUAAUAUCACGGAACAUACCAUCUAGAACGUUCCAGUCUGCCUGACUACCUUCAUUCCCAAUGGAGAAGAAAUCCAACAGAGGAUUGAGCAUCA
# B2: chr14:31074762:31074763:+_ENSG00000092140_ENST00000206595|hu_hu|FALSE|FALSE (ssRNA)
# RNA: GGGAGUUCUACAGUCCGACGAUCCCAGAUAUUGGCUUUGUUGAUAUACAAUCUUUUAGUUUUUUUUUUAAUUUGGAAUCCUAACUCUAUUAAUAGUGUUGAUACAUUUCUUCUAAAUUUGCUGCCUUGCCUCAGUAGAUCUUUCAACAGAGGAUUGAGCAUCA
# B3: 730498_730618_283_3pUTR_ENSG00000103266_ENST00000219548|human|control|control (ssRNA)
# RNA: GGGAGUUCUACAGUCCGACGAUCCUCCUUGAGCUCCUGCGCGCUCGGGCUCUUCUCGGGGCUUCCGCCGCCAGCGCCCAGCCGUGCGCCGCCCUCCUUCUCCUCCUUGCCCUUCAUGGCGCCGCGCGGCACGGCCUGGGCUCCCAACAGAGGAUUGAGCAUCA
# B4: chr5:125368827:125368828:+_ENSMUSG00000079215_ENSMUST00000111417|mus_mus|FALSE|FALSE (ssRNA)
# RNA: GGGAGUUCUACAGUCCGACGAUCUAGCUUCAAAAGUGUUAGUUGUAUUCCCCAGCAACCGCAUGAUAAAAUAAUUCAACUAUGUAGAAAUAUAGAACUCUAGGACUAGCUGGAAACUGGGCAAUCAUUUAGUCCAGUGUCCUCCAACAGAGGAUUGAGCAUCA
# B5: chr11:72497679:72497680:+_ENSMUSG00000020794_ENSMUST00000021148|mus_hu|FALSE|FALSE (ssRNA)
# RNA: GGGAGUUCUACAGUCCGACGAUCAUUGCUAUAUCCAAUCCAAGAGGUGGGUGCAACUAGAAUACAAAAAGGACAAAGCACCUAGUGAUGACUCCUUCGAAGUCAUCAUUAAAAAUCAAGUAAUUGCUCAUUAAGUAUUUCAGUCAACAGAGGAUUGAGCAUCA
# B6: chr3:176767854:176767855:-_ENSG00000177565_ENST00000430069|hu_hu|hu_hu_hu_mus_False|8_108 (ssRNA)
# RNA: GGGAGUUCUACAGUCCGACGAUCGACAUCCUUGUUGCUGGGCACGUCCUGCCCUCCUUCCCGUAUGCAGUGUCUAAGCACGAGCUGCGUAGGGCCACUCGUGCUGUUCUCACUGAGGUUCCAGAUUCUUGCUGUUGAGUCUCCCAACAGAGGAUUGAGCAUCA
# B7: chr7:151048522:151048523:+_ENSG00000013374_ENST00000566856|hu_mus|hu_hu_hu_mus_True|28_38 (ssRNA)
# RNA: GGGAGUUCUACAGUCCGACGAUCCUGUUUCUUAUUUAUUACGAUCUUGAUGUAAUUUUCUUGAAAUCCGAAAGUUUCAGCUAUUUGACACCUCAGGUCUCUGCCAGUGAUGUGCAAGCGGGUCUCCAACAAGCUUUUCUUAUCCAACAGAGGAUUGAGCAUCA
# B8: chr11:57926588:57926589:+_ENSMUSG00000020515_ENSMUST00000020822|mus_mus|motif|central (ssRNA)
# RNA: GGGAGUUCUACAGUCCGACGAUCAUCGAUCCCUUCCUCCUCGUGUUUCUGGAACUGCAGCCCUGAGUUUGCAAGCAGAUCGGUGGAAUCCUGGGAGUACAUAUCCUCUGUCAGGUUGAACUUGAAGUUGAACUGCCAUGUGUUCAACAGAGGAUUGAGCAUCA
# B9: chr7:65705844:65705845:+_ENSG00000169902_ENST00000304842|hu_mus|hu_hu_hu_mus_False|1_18 (ssRNA)
# RNA: GGGAGUUCUACAGUCCGACGAUCAAACGGAUCUUUGUUACAUAAAUAAGGUGCCGGCUCCCCAUGUUUAACAAUGACCUCCAGAAGGAAGGCUUGCAUGGCAGAAUCUAGCACUUCAUCAGUAACACCCGCCUCAUCCAGGCGCAACAGAGGAUUGAGCAUCA
# B10: chr17:49039638:49039639:-_ENSG00000008294_ENST00000262013|hu_hu|motif|central (ssRNA)
# RNA: GGGAGUUCUACAGUCCGACGAUCCAUUCUGAACCCCAGGGAUUCCAUAAUAGAAAUAAAUACUGAAAUAACUACAUUGCGGAAUGAGCUCUUUGCUCAUAGAAAUGAAGCUCAGCCUCUAAGAGACAGCAAGUGGGACAUUCUCAACAGAGGAUUGAGCAUCA
# B11: chr2:9725471:9725472:-_ENSG00000134308_ENST00000238081|hu_hu|motif|central (ssRNA)
# RNA: GGGAGUUCUACAGUCCGACGAUCUGCCGCAUCACAUUCUUCUCCUGCACUGUCUGAUGUCCAAAGUGUUAGGUUGUCUCGGAGCAACUGCAUGAUGAGGGUGCUGUCUUUGUAUGAGUCUUCAUUCAGUGUAUCAAGUUCAGCCAACAGAGGAUUGAGCAUCA
# B12: chr14:76904430:76904431:+_ENSMUSG00000022010_ENSMUST00000022587|mus_mus|mus_mus_mus_hu_True|28_28 (ssRNA)
# RNA: GGGAGUUCUACAGUCCGACGAUCUGCAGCCAAAAACACCCUCGUGGAAAAAAAGAGGGAACACCAGCAGCCUUGUAUAAGCUAGAUAAAAUCUUCUGGCUUUCCGCAGCUCAGGGCGAAACAGAAAACGGCAGCCCUAAUUUACAACAGAGGAUUGAGCAUCA
# B13: chr22:19452774:19452775:-_ENSG00000070010_ENST00000399523|hu_hu|hu_hu_hu_mus_False|8_18 (ssRNA)
# RNA: GGGAGUUCUACAGUCCGACGAUCCUUCUCAUUGUAGUUGAUAGCAAUCACAUCUCCAGUCGUCAGACAGGCGAAGUUUCUCAAUGCAUUUUCUAAUACCGCUUUAGGGUUGGUAAUGUCCAGGAAGUCAGGGCUCUGAGGCUGCAACAGAGGAUUGAGCAUCA
# B14: 37006464_37006584_4389_CDS_ENSG00000164190_ENST00000448238|human|control|control (ssRNA)
# RNA: GGGAGUUCUACAGUCCGACGAUCCACAGCUUUUGGCAUGUUAGGGGAUGUCAUAAUGUUGAUAGUUGUAAGACAAGCAUCCGCUGAUUUUGUAACUCUCUCCAUAAUAAGGUCUCUCCAUAACCUUUCUUCUUCUUCAGUAUCCAACAGAGGAUUGAGCAUCA
# B15: chr3:119217614:119217615:+_ENSG00000113845_ENST00000264244|hu_mus|motif|central (ssRNA)
# RNA: GGGAGUUCUACAGUCCGACGAUCGCUCCGCAAAGGCGGCUGCGGGGAGCGGGCGGCGGCGCGCCCAUGGCGCCCUCCGGCCCGCAGAGAGACAGACACCCCAGGGUCGGCGGGCACCGUGGGAGAGGGUGACCUGUACAGCCCCAACAGAGGAUUGAGCAUCA
# B16: chr10:33190432:33190433:-_ENSG00000150093_ENST00000302278|hu_mus|hu_hu_hu_mus_True|38_48 (ssRNA)
# RNA: GGGAGUUCUACAGUCCGACGAUCUACAUUUUCCAAACCUGCAUGUGAAUAAAACCCUGGCCACAGAGCCCCAAAACUACCCUACUGUGACUAUGGAAAUUGCUACUUGAGCUUGGUGUUGCAAAAUCCGCCUGAGUAGGAUUCCAACAGAGGAUUGAGCAUCA
# B17: chr13:100192284:100192285:-_ENSMUSG00000052727_ENSMUST00000064762|mus_hu|FALSE|FALSE (ssRNA)
# RNA: GGGAGUUCUACAGUCCGACGAUCGUAAGAUUUCCAUUAGCAAAUGAUUAAAUCUUAAUUAAAUGAGUAUUGGAAAGCUCCUAGACUGCAUAAGCUAUUGGAGACACUUAAAACAUUCAUAUACACUGGGGAAACCAUUCACUACAACAGAGGAUUGAGCAUCA
# B18: chr6:114281168:114281169:-_ENSG00000196591_ENST00000368632|hu_hu|hu_hu_hu_mus_True|38_78 (ssRNA)
# RNA: GGGAGUUCUACAGUCCGACGAUCUUCCAUUUUUCGGUAUAAACCAUAAUUUAGCAGCAAGUUAUGGGUCAUCCGGAUUCUAUGAGGCUUCAUGGGAUGACCCUGUCCAUAAUAAUAAUUGCCAAUAUCACCAUCAUAGUAGUACAACAGAGGAUUGAGCAUCA
# B19: chr9:53430067:53430068:-_ENSMUSG00000032030_ENSMUST00000166367|mus_hu|FALSE|FALSE (ssRNA)
# RNA: GGGAGUUCUACAGUCCGACGAUCGGGUGAGUUGACUUGAGGUUCAUACAACAAAACUUGCCGUUUGAGUUUUGGGAAAGCUACUAAAGACCAUAAAGUCCUCCUAAGUUCAGCAUCAGGGAGUUCAGUUGCAAGCUUAAGAUUCAACAGAGGAUUGAGCAUCA
# B20: 109005753_109006138_1874_CDS_ENSMUSG00000053646_ENSMUST00000072093|mouse|control|control (ssRNA)
# RNA: GGGAGUUCUACAGUCCGACGAUCUGACAAGAAAACCUCCCUCCUCUCUUCCCGACUGAUAUUGGCAGGGCUCACGGCCACCACUCGAAGACAGCCCAGUUCCGGCUGGAAGCUCCACAGCCACUGCUCUGGGCCCUGGUCCCUCAACAGAGGAUUGAGCAUCA
# B21: chr3:103141349:103141350:+_ENSMUSG00000033014_ENSMUST00000106860|mus_mus|FALSE|FALSE (ssRNA)
# RNA: GGGAGUUCUACAGUCCGACGAUCACUUGUAGGCUGAGGGGGUAGAUGACUGCCUGAGAUAUAUCUACUCAGUAGAUUAUCUAAACUACUUGAGCCAGCAUCUUCCAACUGUAUAGGUGGGAUAUCUGGCAACGAUGGAAGGUUCAACAGAGGAUUGAGCAUCA
# B22: chr7:135612270:135612271:-_ENSG00000105887_ENST00000393085|hu_mus|hu_hu_hu_mus_False|18_108 (ssRNA)
# RNA: GGGAGUUCUACAGUCCGACGAUCGUUUCUGAGAUGUAUGUUAAAUAGUACUUCAGUGGAAAACAAAACUUAACCUUUUAUUAAUGCGUGUUGUACCAAAAGCAGACAUUUUAGCUUGCUUCCUUUAAAAAUAUUAACAUUAAGCAACAGAGGAUUGAGCAUCA
# Target: T1, UNK ZnF1-3
# Experiment: nsRBNS (natural sequence RNA bind-n-seq); RBNS binding buffer (assumed for nsRBNS): 25 mM Tris pH 7.5, 150 mM KCl, 3 mM MgCl2, 0.01% Triton X-100, 500 ug/ml BSA, 20 U/ml SUPERase-In, 4 C; UNK is unkempt and MSI1 is Musashi-1; names of the RNAs are library labels; protein concentration not given here; high values mean tight binding
row,Binder,binding signal [enrichment R]
1,B1,0.796
2,B2,0.804
3,B3,0.651
4,B4,1.37
5,B5,1.45
6,B6,0.446
7,B7,0.51
8,B8,0.891
9,B9,0.309
10,B10,1.43
11,B11,0.881
12,B12,1.84
13,B13,0.792
14,B14,0.744
15,B15,0.76
16,B16,1.15
17,B17,1.07
18,B18,0.856
19,B19,1.55
20,B20,1.27
21,B21,0.953
22,B22,0.584
